The structures appear in SMILES notation. Counter-ions that a name gives are not always drawn. The list shows a part of the results. Many values rest on one well or one pass, so single values are uncertain.
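Also: viability estimated indirectly by image-based GFP quantification with live-cell imaging of the constitutively GFP-expressing human colorectal cancer line, no immune cells added.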

In the assay the test system is HCT116-GFP. The assay is described as follows: HCT116-GFP viability (GFP intensity) relative to untreated control, monoculture; higher = less cancer cell killing. Particulars: culture: HCT116-GFP monoculture; 10 µM; 72 h.
In the case of `CN(C)CCCOc1nn(Cc2ccccc2)c2ccccc12` [Benzydamine hydrochloride], the HCT116-GFP viability came out at 95.1%. To `Nc1ccc(S(=O)(=O)Nc2ccc(Cl)nn2)cc1` [Sulfachloropyridazine] belongs 94.6%; to `COc1cc2nc(N3CCN(C(=O)C4CCCO4)CC3)nc(N)c2cc1OC` (stereo unspecified) [Terazosin hydrochloride], 106%; to `C[C@H]1[C@H](NC(=O)/C(=N\OC(C)(C)C(=O)O)c2csc(N)n2)C(=O)N1S(=O)(=O)O` [Aztreonam], 101%. On to `CNCCC=C1c2ccccc2CCc2ccccc21` [Nortriptyline hydrochloride], for which the HCT116-GFP viability was 73.1%. To `CCc1c2c(nc3ccc(OC(=O)N4CCC(N5CCCCC5)CC4)cc13)-c1cc3c(c(=O)n1C2)COC(=O)[C@]3(O)CC` [Irinotecan hydrochloride trihydrate] belongs 15.7%; to `CC(C)(O/N=C(\C(=O)N[C@@H]1C(=O)N2C(C(=O)[O-])=C(C[n+]3ccccc3)CS[C@H]12)c1csc(N)n1)C(=O)O` [Ceftazidime pentahydrate], 102%; to `Cc1ccc(/C(=C\CN2CCCC2)c2ccccn2)cc1` [Triprolidine hydrochloride], 93.2%. To `Cc1c(Cl)cccc1Nc1ncccc1C(=O)O` [Clonixin Lysinate] belongs 98.3%; to `O=C(N/N=C/c1ccc([N+](=O)[O-])o1)c1ccc(O)cc1` [Nifuroxazide], 30.9%. Turning to `CN1CCN(C(c2ccccc2)c2ccc(Cl)cc2)CC1` (stereo unspecified) [Chlorcyclizine hydrochloride], the HCT116-GFP viability is 89.1%. As to `CCc1cc(C(N)=S)ccn1` [Ethionamide], the HCT116-GFP viability worked out at 108%.

Turning to `CC(=O)Nc1c(I)c(NC(C)=O)c(I)c(C(=O)O)c1I` [Diatrizoic acid dihydrate], the HCT116-GFP viability turned out to be 113%. Turning to `CCC(=O)[C@@]1(C)[C@H](C)C[C@H]2[C@@H]3CCC4=CC(=O)C=C[C@]4(C)[C@H]3[C@@H](O)C[C@@]21C` [Rimexolone], the HCT116-GFP viability is 27.1%. To `CN(N=O)C(=O)N[C@@H](C=O)[C@@H](O)[C@H](O)[C@H](O)CO` [Streptozotocin] belongs 103%; to `CCn1cc(C(=O)O)c(=O)c2cc(F)c(N3CCN(C)CC3)cc21` [Pefloxacine], 105%. Next, `CC[C@]12CCCN3CCc4c(n(c5ccccc45)C(=O)C1)[C@@H]32` [Eburnamonine (-)]: 21.8%; `C[C@@H]1CN(c2c(F)c(N)c3c(=O)c(C(=O)O)cn(C4CC4)c3c2F)C[C@H](C)N1` [Sparfloxacin]: 95.5%. To `C[C@]12C=CC(=O)C=C1CC[C@@H]1[C@@H]2C(=O)C[C@@]2(C)[C@H]1CC[C@]2(O)C(=O)CO` [Prednisone] belongs 99.1%; to `CCn1cc(C(=O)O)c(=O)c2cc(F)c(N3CCNC(C)C3)c(F)c21` (stereo unspecified) [Lomefloxacin hydrochloride], 107%. Turning to `CS(=O)(=O)Nc1ccc([N+](=O)[O-])cc1Oc1ccccc1` [Nimesulide], the HCT116-GFP viability was found to be 101%.

On to `COc1cc(C)nc(-n2nc(C)cc2OC)n1` [Epirizole], for which the HCT116-GFP viability came out at 95.7%. Take `CNC(=C[N+](=O)[O-])NCCSCc1csc(CN(C)C)n1` [Nizatidine]: the HCT116-GFP viability was found to be 96.6%. As for `CCn1cc(C(=O)O)c(=O)c2cnc(N3CCNCC3)nc21` [Pipemidic acid], the HCT116-GFP viability is 104%. Regarding `COc1cc2nc(N3CCN(C(=O)c4ccco4)CC3)nc(N)c2cc1OC` [Prazosin hydrochloride], the HCT116-GFP viability stood at 25.5%. To `COc1nc(C)nc(Cl)c1NC1=NCCN1` [Moxonidine] belongs 106%; to `CC(=O)N[C@@H](CC(=O)N[C@@H](CCC(=O)O)C(=O)O)C(=O)O` [Spaglumic acid], 102%. `Cc1ccc(S(=O)(=O)NC(=O)NN2CC3CCCC3C2)cc1` (stereo unspecified) [Gliclazide]: the HCT116-GFP viability came to 120%.

Take `C#CCN(C)Cc1ccccc1` [Pargyline hydrochloride]: the HCT116-GFP viability came out at 105%. To `CCn1cc(C(=O)O)c(=O)c2ccc(C)nc21` [Nalidixic acid sodium salt] belongs 99.3%. To `COc1ccc2cc(CCC(C)=O)ccc2c1` [Nabumetone] belongs 101%; to `O=C(CCCN1CC=C(n2c(=O)[nH]c3ccccc32)CC1)c1ccc(F)cc1` [Droperidol], 91%. To `CCN(CC)CCNC(=O)c1cc(S(C)(=O)=O)ccc1OC` [Tiapride hydrochloride] belongs 87.4%; to `CN1C2CCCC1CC(NC(=O)c1nn(C)c3ccccc13)C2` (stereo unspecified) [Granisetron], 91.5%. Turning to `CC(C)N1CCN(c2ccc(OCC3COC(Cn4cncn4)(c4ccc(Cl)cc4Cl)O3)cc2)CC1` (stereo unspecified) [Terconazole], the HCT116-GFP viability came to 75.4%. Next, `CN(C)CCOC1=Cc2ccccc2Sc2ccc(Cl)cc21` [Zotepine]: 59.6%; `CCN(Cc1ccncc1)C(=O)C(CO)c1ccccc1` (stereo unspecified) [Tropicamide]: 90.3%; `O=C(NCCNCC(O)COc1ccc(O)cc1)N1CCOCC1` (stereo unspecified) [Xamoterol hemifumarate]: 90.4%. Next, `OC(CCN1CCCCC1)(c1ccccc1)C1CC2C=CC1C2` (stereo unspecified) [Biperiden hydrochloride]: 102%; `Cc1ncc([N+](=O)[O-])n1CCO` [Metronidazole]: 107%. Next, `CCN(CC)CC#CCOC(=O)C(O)(c1ccccc1)C1CCCCC1` (stereo unspecified) [Oxybutynin chloride]: 106%; `COc1ccc(C(=O)NCc2cccnc2)cc1C(=O)NCc1cccnc1` [Picotamide monohydrate]: 95.7%. For `COc1ccc2[nH]cc(CCNC(C)=O)c2c1` [Melatonin], the HCT116-GFP viability is 101%. For the compound `Cc1ccc(C(=O)c2cc(O)c(O)c([N+](=O)[O-])c2)cc1` [Tolcapone], the HCT116-GFP viability was 91.7%. To `NC[C@H]1O[C@H](O[C@H]2[C@H](O[C@@H]3O[C@H](CO)[C@@H](O)[C@H]3O)[C@@H](O)[C@H](N)C[C@@H]2N)[C@H](N)[C@@H](O)[C@@H]1O` [Ribostamycin sulfate salt] belongs 110%; to `CN1CCCCC1CCN1c2ccccc2Sc2ccc([S+](C)[O-])cc21` (stereo unspecified) [Mesoridazine besylate], 94.9%; to `NC(=O)N/N=C/c1ccc([N+](=O)[O-])o1` [Nitrofural], 81.8%. `CCCC(=O)Nc1ncnc2c1ncn2[C@@H]1O[C@@H]2COP(=O)(O)O[C@H]2[C@H]1OC(=O)CCC` [Bucladesine sodium salt]: the HCT116-GFP viability was found to be 88.2%. For `CN(C)CCC[C@@]1(c2ccc(F)cc2)OCc2cc(C#N)ccc21` [Escitalopram oxalate], the HCT116-GFP viability was found to be 95%. Next, `CN1CCCC(n2nc(Cc3ccc(Cl)cc3)c3ccccc3c2=O)CC1` (stereo unspecified) [Azelastine hydrochloride]: 78.5%. Take `CCN1CCN(C(=O)N[C@@H](C(=O)N[C@@H]2C(=O)N3[C@@H]2SC(C)(C)[C@@H]3C(=O)O)c2ccccc2)C(=O)C1=O` [Piperacillin sodium salt]: the HCT116-GFP viability was 99.4%.

As to `CO[C@@H]1[C@@H](OC(N)=O)[C@@H](O)[C@H](Oc2ccc3c(O)c(NC(=O)c4ccc(O)c(CC=C(C)C)c4)c(=O)oc3c2C)OC1(C)C` [Novobiocin sodium salt], the HCT116-GFP viability was 97.1%. Next, `N=C(N)NCC1COC2(CCCCC2)O1` (stereo unspecified) [Guanadrel sulfate]: 103%; `CC1(C)OC(=O)NC1=O` [Dimethadione]: 96.7%; `Nc1ccc(C(=O)NCC(=O)O)cc1` [Aminohippuric acid]: 108%.

On to `COc1ccc(NS(=O)(=O)c2ccc(N)cc2)nn1` [Sulfamethoxypyridazine], for which the HCT116-GFP viability was 99.5%. To `CCC[C@H](N[C@@H](C)C(=O)N1[C@H](C(=O)O)C[C@@H]2CCCC[C@@H]21)C(=O)OCC` [Perindopril] belongs 86.5%; to `OCCN1CCN(CCCN2c3ccccc3Sc3ccc(Cl)cc32)CC1` [Perphenazine], 46.6%. As to `CN(C)CCc1c[nH]c2ccc(Cn3cncn3)cc12` [Rizatriptan benzoate], the HCT116-GFP viability worked out at 91.9%. Take `OC[C@H]1O[C@@H](Oc2ccc(O)cc2)[C@H](O)[C@@H](O)[C@@H]1O` [Arbutin]: the HCT116-GFP viability was 101%.

Turning to `Nc1ccc(S(=O)(=O)c2ccc(N)cc2)cc1` [Dapsone], the HCT116-GFP viability was 102%. Next, `C=C1C[C@H]2[C@@H]3C=C(C)C4=CC(=O)CC[C@]4(C)[C@H]3CC[C@]2(C)[C@@]1(OC(C)=O)C(C)=O` [Melengestrol acetate]: 101%; `CC(=O)Oc1cccc2c1C(=O)c1c(OC(C)=O)cc(C(=O)O)cc1C2=O` [Diacerein]: 122%.

Consider `CCCNC(C)C(=O)Nc1ccccc1C` (stereo unspecified) [Prilocaine hydrochloride], for which the HCT116-GFP viability came out at 94.5%. Turning to `COc1ccc(CN(CCN(C)C)c2ccccn2)cc1` [Pyrilamine maleate], the HCT116-GFP viability was found to be 102%.

As for `CC(COc1ccccc1)N(CCCl)Cc1ccccc1` (stereo unspecified) [Phenoxybenzamine hydrochloride], the HCT116-GFP viability came out at 82.3%. Next, `CCCCC[C@H](O)/C=C/[C@@H]1[C@@H](C/C=C\CCCC(=O)O)[C@@H](O)C[C@H]1O` [Dinoprost trometamol]: 101%. Next, `CC(=O)c1ccc(S(=O)(=O)NC(=O)NC2CCCCC2)cc1` [Acetohexamide]: 90.5%.

Take `CCCN[C@H]1CCc2nc(N)sc2C1` [Pramipexole dihydrochloride]: the HCT116-GFP viability came to 83.6%. To `CCOC(=O)c1ccc(OC(=O)CCCCCNC(=N)N)cc1` [Gabexate mesilate] belongs 109%; to `Cc1cc(=O)oc2cc(O)ccc12` [Hymecromone], 85.1%; to `Cn1c(=O)c2nc[nH]c2n(C)c1=O` [Theophylline monohydrate], 102%. Turning to `C=C1c2cccc(O)c2C(=O)C2=C(O)[C@]3(O)C(=O)C(C(N)=O)=C(O)[C@@H](N(C)C)[C@@H]3[C@@H](O)[C@H]12` [Methacycline hydrochloride], the HCT116-GFP viability stood at 84.5%. As to `c1ccc(C2CN3CCSC3=N2)cc1` (stereo unspecified) [Tetramisole hydrochloride], the HCT116-GFP viability was 97.5%. On to `Cc1scc2c1N(C(=O)CN1CCN(C)CC1)c1ccccc1NC2=O` [Telenzepine dihydrochloride], for which the HCT116-GFP viability came to 92.1%.

Regarding `NCCCC[C@H](N[C@@H](CCc1ccccc1)C(=O)O)C(=O)N1CCC[C@H]1C(=O)O` [Lisinopril], the HCT116-GFP viability came out at 97.8%.

Source of the values: the supplement of paper PMC9938546.
